Measured values as given in PubChem BioAssay AID463173 (ICCB-Longwood Screening Facility, Harvard Medical School, 2010).
About 1,700 (3.3%) of roughly 52,000 compounds were called active. No stated cut-off is given here; in the data, active means survival mostly below about 52% (no sharp cut-off); inactive means mostly above about 56%. The list shows a part of the results.

tested on: Wild type; assay: S. aureus survival, RN4220 and DeltatarO strains – OD600, teichoic acid synthesis inhibitors, primary screen (AID 463173); conditions: S. aureus RN4220 wild type/DeltatarO growth, OD600, 18 h, active compounds read low, screened at 18.75 µg/mL (by protocol)

SMILES | survival
CC(C)(C)c1ccc(C(=O)N(Cc2ccc(F)cc2)Cc2ccco2)cc1 | inactive: 76%
Cc1ccc(-c2nnc(Nc3ccccc3)c3ccccc23)cc1S(=O)(=O)N1CCN(C)CC1 | inactive: 70%
COc1ccc2cc(CNc3ccc(C)cc3)c(=O)n(CC(=O)Nc3cccc(Cl)c3C)c2c1 | inactive: 73%
CCOC(=O)c1cc2oc(C)cc2n1CC(=O)NC1CC1 | inactive: 94%
COc1cc(Cl)c(C)cc1NC(=O)c1cnn(-c2ccc(F)cc2F)c1C1CCN(C(=O)OC(C)(C)C)CC1 | inactive: 57%
CCn1cc2nc(SCc3ccc(F)cc3)n(CCc3ccccc3)c(=O)c2n1 | inactive: 77%
CCN(CCCNC(=O)c1ccc(Sc2ccc(Cl)cc2)c(NC(C)=O)c1)c1ccccc1 | inactive: 84%
O=C(c1cccs1)N(Cc1cccnc1)c1nc2c(F)cc(F)cc2s1 | inactive: 69%
COc1ccc(-c2nc(CSc3nnc(C)n4c3cc3oc(C)cc34)c(C)o2)cc1OC | inactive: 89%
CCN(CC)S(=O)(=O)c1nnc(NC(=O)c2ccc(Br)cc2)s1 | inactive: 57%
Cc1ccc(S(=O)(=O)/N=C2\C=C(Sc3ncn[nH]3)C(=O)c3ccccc32)cc1 | inactive: 69%
O=S(=O)(c1ccccc1)c1nc(-c2cccc(Cl)c2)oc1N1CCOCC1 | inactive: 80%
COc1ccc(CCNC(=O)C2CCCN(S(=O)(=O)c3ccc4c(c3)oc(=O)n4C)C2)cc1OC (configuration not stated) | inactive: 78%
O=C(O)CN1CCCCC1 | inactive: 91%
CCOc1ccc(-c2cc3nc(C4CCN(C(=O)OC(C)(C)C)CC4)c(C(=O)Nc4c(C)cccc4C)cn3n2)cc1 | inactive: 86%
Cc1ccc(CNC(=O)CCc2cn(Cc3ccc(C)cc3)c3ccccc23)cc1 | inactive: 83%
CCOC(=O)c1c(C)sc(-c2c(-c3cccc(Cl)c3)[nH]c3c2c(=O)n(C)c(=O)n3C)c1O | inactive: 114%
COc1ccc(NC(=O)C2=C(C)Nc3ncnn3C2c2ccc[nH]2)cc1 (configuration not stated) | inactive: 83%
Cc1cc(C)c(Cn2c(=O)n(CCCCC(=O)NCc3ccccc3Cl)c(=O)c3ccccc32)c(C)c1 | inactive: 90%

SMILES | survival
CC1=NN(c2ccccc2)C(=O)C1(O)C1C(=O)c2ccccc2C1=O (configuration not stated) | inactive: 110%
CCC(=O)Nc1ccccc1-c1nc2ccccc2n(C(CC)C(=O)Nc2cccc(Cl)c2)c1=O (configuration not stated) | inactive: 48%
CC(=O)Nc1ccc(NC(=O)C2CCN(c3cnccn3)CC2)cc1 | inactive: 84%
Fc1ccc2c(c1)-c1c(cnc3cc(-c4ccc(Cl)cc4)nn13)CO2 | inactive: 65%
CC(=O)N1CCc2cc(CNC(=O)Nc3ccc(Br)c(C)c3)ccc21 | inactive: 85%
COc1cccc(NC(=O)c2csnn2)c1 | inactive: 92%
Cc1c(C(=O)N(C)C)sc2c1c(=O)n(-c1ccc(F)cc1)c(=O)n2Cc1ccccc1C#N | inactive: 88%
CCc1ccccc1N(C)S(=O)(=O)c1ccc2c(c1)C(C)(C)C(=O)N2C | inactive: 99%
CCCNC(=O)Cn1nc(C(F)(F)F)c2c1CCC2 | inactive: 119%
COCCNC(=S)N1CCC(C(=O)c2ccc(F)cc2)CC1 | inactive: 111%
COc1ccc(CCN2C(=O)c3[nH]nc(-c4ccccc4O)c3C2c2ccccc2)cc1 (configuration not stated) | inactive: 67%
C=CCSc1nc2sc3c(c2c(=O)[nH]1)CC(C)(C)OC3 | inactive: 112%
C=Cc1ccc(Cn2ccn(-c3ccc(F)c(F)c3)c(=O)c2=O)cc1 | inactive: 117%
COc1cc(NC(=O)CC2C(=O)N(c3cccc(C)c3)C(=O)N2Cc2cccs2)cc(OC)c1 (configuration not stated) | inactive: 53%
Cc1ccc(C(=O)Nc2ccc3[nH]c(=O)c(=O)[nH]c3c2)cc1 | inactive: 87%
CC(C)Oc1ccc(CNC(=O)Cn2c(-c3cccs3)cc3ccccc32)cc1 | inactive: 64%
COc1cccc(C(=O)Nc2ccc(S(=O)(=O)N(Cc3ccccc3)c3ccccc3)cc2)c1 | inactive: 80%
CCS(=O)(=O)N1CCc2cc(C(=O)NCCc3ccc(OC)c(OC)c3)ccc21 | inactive: 85%
Cc1ccc(C2CCN(C(=O)Nc3ccc(C)c(C)c3)C2)cc1 (configuration not stated) | inactive: 66%

SMILES | survival
CC1CCC(CC(=O)O)(CC(=O)O)CC1 | inactive: 105%
Cc1ccc(NC(=O)c2sc3ncnc(N(C)C4CCCCC4)c3c2C)cc1 | inactive: 148%
C[N+](C)(C)CC(O)COc1ccccc1 (configuration not stated) | inactive: 107%
Cc1ccc(C)c(N2CCN(c3nc4ccccc4c(=O)n3-c3ccccc3)CC2)c1 | active: 10%
O=c1c2c3c(sc2n(Cc2ccc(F)cc2Cl)c(=O)n1-c1ccc(Cl)cc1)CCC3 | inactive: 140%
CC(=O)c1ccc(N2CCN(C(=O)C3CCN(S(=O)(=O)c4c(C)noc4/C=C/c4ccccc4F)CC3)CC2)cc1 | inactive: 74%
Cc1cc(C)c(S(=O)(=O)NCCc2csc3nc(-c4ccc(Cl)cc4)nn23)c(C)c1 | inactive: 65%
CCOC(=O)COc1nc(C)c(Br)c(OC)n1 | inactive: 108%
COC(=O)CSc1nc2cc(OC)c(OC)cc2cc1C | inactive: 110%
CCOc1ccc2cc(-c3nnc(Nc4ccc(C)cc4)s3)c(=O)oc2c1 | inactive: 86%
Cc1ccccc1OCc1ccc(-c2nc(C#N)c(N3CCC(C(N)=O)CC3)o2)o1 | inactive: 66%
CCOc1ccc2c(c1)c(=O)c(S(=O)(=O)c1ccc(Cl)cc1)cn2Cc1ccccc1C | inactive: 90%
COc1cccc(Nc2nc3ccc(C(=O)c4ccccc4)cc3n3c(C)nnc23)c1 | inactive: 80%
COc1ccc(NC(=O)c2ccc(NC(=O)CCS(=O)(=O)c3cccs3)cc2)cc1 | inactive: 92%
Oc1c(Cl)cc(Cl)cc1CNn1cnnc1 | inactive: 92%
O=C(Nc1ccc(Cl)c(-c2nc3cc(Cl)ccc3o2)c1)c1cc2ccccc2o1 | inactive: 67%
Cc1ccc(C)c(CN2C(=O)c3ccccc3S(=O)c3ccc(C(=O)NCCC4=CCCCC4)cc32)c1 (configuration not stated) | inactive: 81%
COc1ccc(CCC(=O)NCCc2csc(-c3cccc(C)c3)n2)cc1 | inactive: 76%
Cc1ccccc1-c1nc(SCC(=O)N(C)c2ccccc2)c2c(=O)n(C)c(=O)n(C)c2n1 | inactive: 60%
